Reference: the supplement of paper PMC8728848
This is one part of the list.

Tests used:
Test in all cases: glycan array binding signal (z-score within array); higher = stronger binding
Details in all cases: glycan notation: IUPAC condensed, linker removed
[1] = molecular target: Neu5Ac(a2-3)Gal(b1-4)[Fuc(a1-3)]GlcNAc(b1-3)Gal(b1-4)[Fuc(a1-3)]GlcNAc(b1-3)Gal(b1-4)Glc
Procedure, shortened: (§1)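 The Consortium for Functional Glycomics database supplied 3228 glycan arrays, of which those lacking an available protein sequence were dropped. The binding signal, a within-array Z-score, was averaged across arrays of the same protein sequence and across linkers. Negative scores can be read as non-binding.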

[2] = molecular target: Neu5Ac(a2-3)Gal(b1-4)[Fuc(a1-3)]GlcNAc6S(b1-3)Gal(b1-4)Glc
Procedure, shortened: as §1

[3] = molecular target: Neu5Ac(a2-3)Gal6S(b1-4)[Fuc(a1-3)]GlcNAc(b1-3)Gal(b1-4)Glc
Procedure, shortened: as §1

[4] = molecular target: Neu5Ac(a2-3)Gal6S(b1-4)[Fuc(a1-3)]GlcNAc6S(b1-3)Gal(b1-4)Glc
Procedure, shortened: as §1

[5] = molecular target: Neu5Ac(a2-3)[GalNAc(b1-4)]Gal(b1-3)GalNAc(b1-4)[Neu5Ac(a2-3)]Gal(b1-4)Glc
Procedure, shortened: as §1

[6] = molecular target: Neu5Ac(a2-3)[GalNAc(b1-4)]Gal(b1-4)Glc
Procedure, shortened: as §1

[7] = molecular target: Neu5Ac(a2-6)Gal(b1-3)GlcNAc(b1-3)[Fuc(a1-3)[Gal(b1-4)]GlcNAc(b1-6)]Gal(b1-4)Glc
Procedure, shortened: as §1

[8] = molecular target: Neu5Ac(a2-6)Gal(b1-3)GlcNAc(b1-3)[Gal(b1-4)GlcNAc(b1-6)]Gal(b1-4)Glc
Procedure, shortened: as §1

[9] = molecular target: Neu5Ac(a2-6)Gal(b1-4)Glc
Procedure, shortened: as §1

[10] = molecular target: Neu5Ac(a2-6)Gal(b1-4)GlcNAc
Procedure, shortened: as §1

[11] = molecular target: Neu5Ac(a2-6)Gal(b1-4)GlcNAc(b1-2)Man(a1-3)[Neu5Ac(a2-6)Gal(b1-4)GlcNAc(b1-2)Man(a1-6)]Man(b1-4)GlcNAc(b1-4)GlcNAc
Procedure, shortened: as §1

[12] = molecular target: Neu5Ac(a2-6)Gal(b1-4)GlcNAc(b1-2)[Neu5Ac(a2-3)Gal(b1-4)GlcNAc(b1-4)]Man(a1-3)[Neu5Ac(a2-3)Gal(b1-4)GlcNAc(b1-2)Man(a1-6)]Man(b1-4)GlcNAc(b1-4)GlcNAc
Procedure, shortened: as §1

[13] = molecular target: Neu5Ac(a2-6)Gal(b1-4)GlcNAc(b1-3)Gal(b1-4)Glc
Procedure, shortened: as §1

[14] = molecular target: Neu5Ac(a2-6)Gal(b1-4)GlcNAc(b1-3)Gal(b1-4)[Fuc(a1-3)]Glc
Procedure, shortened: as §1

[15] = molecular target: Neu5Ac(a2-6)Gal(b1-4)GlcNAc(b1-3)[Neu5Ac(a2-6)Gal(b1-4)GlcNAc(b1-6)]Gal(b1-4)Glc
Procedure, shortened: as §1

[16] = molecular target: Neu5Ac(a2-6)Gal(b1-4)GlcNAc(b1-6)[Gal(b1-3)GlcNAc(b1-3)]Gal(b1-4)Glc
Procedure, shortened: as §1

[17] = molecular target: Neu5Ac(a2-6)Gal(b1-4)[Fuc(a1-3)]GlcNAc(b1-3)Gal(b1-4)Glc
Procedure, shortened: as §1

[18] = molecular target: Neu5Ac(a2-8)Neu5Ac
Procedure, shortened: as §1

[19] = molecular target: Neu5Ac(a2-8)Neu5Ac(a2-3)Gal(b1-3)GalNAc(b1-4)[Neu5Ac(a2-3)]Gal(b1-4)Glc
Procedure, shortened: as §1

[20] = molecular target: Neu5Ac(a2-8)Neu5Ac(a2-3)Gal(b1-3)GalNAc(b1-4)[Neu5Ac(a2-8)Neu5Ac(a2-3)]Gal(b1-4)Glc
Procedure, shortened: as §1

[21] = molecular target: Neu5Ac(a2-8)Neu5Ac(a2-3)Gal(b1-4)Glc
Procedure, shortened: as §1

[22] = molecular target: Neu5Ac(a2-8)Neu5Ac(a2-3)[Gal(b1-3)GalNAc(b1-4)]Gal(b1-4)Glc
Procedure, shortened: as §1

[23] = molecular target: Neu5Ac(a2-8)Neu5Ac(a2-3)[GalNAc(b1-4)]Gal(b1-4)Glc
Procedure, shortened: as §1

[24] = molecular target: Neu5Ac(a2-8)Neu5Ac(a2-8)Neu5Ac
Procedure, shortened: as §1

[25] = molecular target: Neu5Ac(a2-8)Neu5Ac(a2-8)Neu5Ac(a2-8)Neu5Ac
Procedure, shortened: as §1

[26] = molecular target: Neu5Ac(a2-8)Neu5Ac(a2-8)Neu5Ac(a2-8)Neu5Ac(a2-8)Neu5Ac
Procedure, shortened: as §1

[27] = molecular target: Neu5Ac(a2-8)Neu5Ac(a2-8)Neu5Ac(a2-8)Neu5Ac(a2-8)Neu5Ac(a2-8)Neu5Ac
Procedure, shortened: as §1

[28] = molecular target: Neu5Ac(a2-8)Neu5Ac(a2-8)Neu5Ac(a2-8)Neu5Ac(a2-8)Neu5Ac(a2-8)Neu5Ac(a2-8)Neu5Ac
Procedure, shortened: as §1

[29] = molecular target: Neu5Ac(a2-8)Neu5Ac(a2-8)Neu5Ac(a2-8)Neu5Ac(a2-8)Neu5Ac(a2-8)Neu5Ac(a2-8)Neu5Ac(a2-8)Neu5Ac
Procedure, shortened: as §1

[30] = molecular target: Neu5Ac(a2-8)Neu5Ac(a2-8)Neu5Ac(a2-8)Neu5Ac(a2-8)Neu5Ac(a2-8)Neu5Ac(a2-8)Neu5Ac(a2-8)Neu5Ac(a2-8)Neu5Ac
Procedure, shortened: as §1

[31] = molecular target: Neu5Ac(a2-8)Neu5Ac(a2-8)Neu5Ac(a2-8)Neu5Ac(a2-8)Neu5Ac(a2-8)Neu5Ac(a2-8)Neu5Ac(a2-8)Neu5Ac(a2-8)Neu5Ac(a2-8)Neu5Ac
Procedure, shortened: as §1

[32] = molecular target: Neu5Ac(a2-8)Neu5Ac(a2-8)Neu5Ac(a2-8)Neu5Ac(a2-8)Neu5Ac(a2-8)Neu5Ac(a2-8)Neu5Ac(a2-8)Neu5Ac(a2-8)Neu5Ac(a2-8)Neu5Ac(a2-8)Neu5Ac
Procedure, shortened: as §1

[33] = molecular target: Neu5Ac(a2-9)Neu5Ac(a2-3)Gal(b1-4)Glc
Procedure, shortened: as §1

[34] = molecular target: Neu5Ac(b2-3)Gal(b1-4)Glc
Procedure, shortened: as §1

[35] = molecular target: Neu5Ac(b2-6)Gal(b1-4)Glc
Procedure, shortened: as §1

[36] = molecular target: Neu5Ac9Ac(a2-6)Gal(b1-4)GlcNAc
Procedure, shortened: as §1

[37] = molecular target: Neu5Gc(a2-3)Gal(b1-4)Glc
Procedure, shortened: as §1

B1: MIC1 (Neospora caninum), Q8WRS0 (protein)
chain: AGAKTYGEASQPSASARSLQGALDTWCQEVFKKLCDDGYSKMCIPANQVVARQGLGRKDQQKLVWRCYDSAAFLAEGDENNVLSCVDDCGVSIPCPGGVDRDNSTHATRHDELSQLIKEGVVRYCSGFQAAANSYCNKRYPGTVARKSKGFGHKEPVKWRCYKPESLLFSVFSECVSNCGTTWSCPGGRLGTATNLDKKHFTDESGILQALTSVPKACPVGLVCLPRDQNPPACLDDNGNVPE
glycan array binding signal (z-score) [1]: -0.024
glycan array binding signal (z-score) [2]: 0.848
glycan array binding signal (z-score) [3]: 6.08
glycan array binding signal (z-score) [4]: 4.92
glycan array binding signal (z-score) [5]: -0.415
glycan array binding signal (z-score) [6]: 1.26
glycan array binding signal (z-score) [7]: -0.441
glycan array binding signal (z-score) [8]: -0.431
glycan array binding signal (z-score) [9]: -0.41
glycan array binding signal (z-score) [10]: -0.395
glycan array binding signal (z-score) [11]: -0.397
glycan array binding signal (z-score) [12]: -0.237
glycan array binding signal (z-score) [13]: -0.387
glycan array binding signal (z-score) [14]: -0.416
glycan array binding signal (z-score) [15]: -0.403
glycan array binding signal (z-score) [16]: -0.441
glycan array binding signal (z-score) [17]: -0.441
glycan array binding signal (z-score) [18]: -0.441
glycan array binding signal (z-score) [19]: -0.441
glycan array binding signal (z-score) [20]: -0.441
glycan array binding signal (z-score) [21]: -0.431
glycan array binding signal (z-score) [22]: -0.441
glycan array binding signal (z-score) [23]: -0.441
glycan array binding signal (z-score) [24]: -0.438
glycan array binding signal (z-score) [25]: 0.071
glycan array binding signal (z-score) [26]: 1.47
glycan array binding signal (z-score) [27]: 0.685
glycan array binding signal (z-score) [28]: 0.538
glycan array binding signal (z-score) [29]: -0.115
glycan array binding signal (z-score) [30]: -0.166
glycan array binding signal (z-score) [31]: -0.342
glycan array binding signal (z-score) [32]: -0.291
glycan array binding signal (z-score) [33]: -0.14
glycan array binding signal (z-score) [34]: -0.441
glycan array binding signal (z-score) [35]: -0.441
glycan array binding signal (z-score) [36]: -0.428
glycan array binding signal (z-score) [37]: -0.377
